The results in this text go back to US12221481B2, “CD19 binding molecules and uses thereof” (Novartis AG, priority 2019, dated 2025).

For data set [1], the system named is T cells. The data set is described as follows: TBM and BBM mediated T cell proliferation (Example 20). The data set is classed as cell-based, human. On the procedure: Briefly, OCI-LY-19, Karpas422, and Toledo target cells stably expressing firefly luciferase were plated in a 96 well plate in T Cell Media (TCM) (RPMI-1640, ThermoFisher Scientific, Cat #11875-085), 10% FBS (Seradigm, Cat #1500-500), 1% L-Glutamine (Thermo Fisher Scientific, Cat #25830-081), 1% Non Essential Amino Acids (Thermo Fisher Scientific, Cat #11140-050), 1% Pen/Strep (Thermo Fisher Scientific, Cat #15070063), 1% HEPES (Thermo Fisher Scientific, Cat #15630080), Sodium Pyruvate (Thermo Fisher Scientific, Cat #11360-070), 0.1% Beta-mercaptoethanol (Thermo Fisher Scientific, Cat #21985-023)]. PBMCs previously isolated and cryopreserved from 2 Leukopak donors were thawed and Pan T cells were isolated (as described earlier). Isolated T cells were labelled with 5 μM Cell Trace Violet (CTV) (Thermo Fisher Scientific, Cat #C34557) following the manufacturer's protocol and were co-cultured with target cells at an E:T ratio of 1:3. A dilution series of CD3med TSP1, CD3hi TSP1, CD3hi BSP1, CD3hi TSP1C, and blinatumomab ranging from 2.5 nM-0.0006 nM was added to cells and the plates were incubated in a 5% CO2, 37° C. incubator for 96 hrs. […]

The subject of data set [2] is T cells. The data set is described as follows: Re-challenge T cell phenotyping with Karpas 422 and OCI-LY-19. The data set is classed as cell-based, human. Conditions: 1 nM, after third challenge, Karpas 422 and OCI-LY-19 models. The protocol: OCI-LY-19 and Karpas422 target cells stably expressing firefly luciferase were plated in a Costar 6 well plate in T Cell Media (TCM). PBMCs previously isolated and cryopreserved from 2 Leukopak donors were thawed and Pan T cells were isolated (as described earlier). Co-cultures of T cells and OCI-LY-19 or Karpas 422 cells at E:T ratio of 1:1 was set-up and 1 nM of CD3hi BSP1, CD3med TSP1, or CD3hi TSP1 was added. The plates were incubated for 4 days for OC-LY-19 and 5 days for Karpas 422 cells. At the end of incubation, the killing of target cells and absolute T cell counts from each antibody treated condition was determined. The T cell counts were normalized across different antibody conditions and two additional rounds of re-challenges were set-up the same way as the previous challenge with a 4 day incubation for both target cells, for a total of three challenges. After the third challenge, T cells from different antibody treated conditions were harvested on day 2 from the Karpas 422 co-cultures and on day 4 from OCI-LY-19 co-cultures and split into 2 fractions. One fraction was stained with blue fixable viability dye (ThermoFisher Scientific, Cat #L23105) prior to staining with a cocktail of anti-human CD3 (Biolegend, Cat #317324), CD4 (Biolegend, Cat #344608), CD8 (BD Biosciences, Cat #563795), CD27 (Biolegend, Cat #356412) & CD62L mAb (Biolegend, Cat #304814). […]

Data set [3] deals with OCI-LY-19 diffuse large B-cell lymphoma (DLBCL) tumor. Particulars: mouse, in vivo, iv.

Numbering of substitutions follows the chain as printed. Read-outs that look alike come from different tables or passages of the source.

B1: CD3hi TSP1: Trispecific binding molecule: NEG258-based CD19 Fab, CD3hi anti-CD3 scFv, CD58 IgV domain, knob-into-hole silenced hIgG1 Fc (antibody)
heavy: QVQLVQSGAEVKKPGASVKVSCKASGYTFTTYWIQWVRQAPGQRLEWMGAVYPGDADTRYTQKFQGRVTLTADRSASTAYMELSSLRSEDTAVYYCGRDAGLEYYALDYWGQGTLVTVSSASTKGPSVFPLAPSSKSTSGGTAALGCLVKDYFPEPVTVSWNSGALTSGVHTFPAVLQSSGLYSLSSVVTVPSSSLGTQTYICNVNHKPSNTKVDKRVEPKSCGGGGSGGGGSEVQLVESGGGLVQPGGSLKLSCAASGFTFNTYAMNWVRQASGKGLEWVGRIRSKYNNYATYYADSVKDRFTISRDDSKSTLYLQMNSLKTEDTAVYYCVRHGNFGNSYVSWFAYWGQGTLVTVSSGGGGSGGGGSGGGGSGGGGSQAVVTQEPSLTVSPGGTVTLTCRSSTGAVTTSNYANWVQQKPGQAPRGLIGGTNKRAPWTPARFSGSLLGDKAALTLSGAQPEDEAEYFCALWYSNLWVFGGGTKLTVLGGGGSDKTHTCPPCPAPELLGGPSVFLFPPKPKDTLMISRTPEVTCVVVAVSHEDPEVKFNWYVDGVEVHNAKTKPREEQYASTYRVVSVLTVLHQDWLNGKEYKCKVSNKALAAPIEKTISKAKGQPREPQVCTLPPSREEMTKNQVSLSCAVKGFYPSDIAVEWESNGQPENNYKTTPPVLDSDGSFFLVSKLTVDKSRWQQGNVFSCSVMHEALHNHYTQKSLSLSPGK
light: EIVMTQSPATLSVSPGERATLSCRASQDVGTAVAWYQQKPGQAPRLLIYWASTRHTGIPARFSGSGSGTEFTLTISSLQSEDFAVYFCQQYANFPLYTFGQGTKLEIKRTVAAPSVFIFPPSDEQLKSGTASVVCLLNNFYPREAKVQWKVDNALQSGNSQESVTEQDSKDSTYSLSSTLTLSKADYEKHKVYACEVTHQGLSSPVTKSFNRGEC
chain: SQQIYGVVYGNVTFHVPSNVPLKEVLWKKQKDKVAELENSEFRAFSSFKNRVYLDTVSGSLTIYNLTSSDEDEYEMESPNITDTMKFFLYVLESGGGGSDKTHTCPPCPAPELLGGPSVFLFPPKPKDTLMISRTPEVTCVVVAVSHEDPEVKFNWYVDGVEVHNAKTKPREEQYASTYRVVSVLTVLHQDWLNGKEYKCKVSNKALAAPIEKTISKAKGQPREPQVYTLPPCREEMTKNQVSLWCLVKGFYPSDIAVEWESNGQPENNYKTTPPVLDSDGSFFLYSKLTVDKSRWQQGNVFSCSVMHEALHNHYTQKSLSLSPGK
With B1, the “T cell proliferation, potency compared between constructs” value in the data set with T cells [1] (E:T 1:3, 96 hrs) was “more potent activity than CD3med TSP1 and CD3hi BSP1”. Moreover, the “T cell proliferation, maximum percentage of proliferated T cells” value in the data set on T cells [1] (in the presence of Karpas420 (so in the source)) is listed as “more effectively induced T cell proliferation”. In addition, in the data set on T cells [2], the “cytokine production from the T cells (IL-2, IFNγ)” value is “induce better cytokine production from the T cells compared to the other CD19 binders tested”; the “enrichment of younger phenotype of T cells” value was “better promoted enrichment of younger phenotype of T cells than CD3med TSP1 and CD3hi BSP1”.

B2: CD3med TSP1: NEG258-based TBM with CD3med anti-CD3 scFv and CD58 IgV CD2-binding arm (antibody)
heavy: B1 heavy with S312N, L314A, Y347H, R401G, T409S, D449G, F467Y
light: B1 light
chain: B1 chain
On to B2, for which the Survival in data set [3] (0.003 mg/kg), in data set [3] (0.01 mg/kg), in data set [3] (0.03 mg/kg), in data set [3] (0.1 mg/kg) and in data set [3] (0.3 mg/kg) was 8/8 in each case.
